In all, about 310,000 compounds went through this assay and about 2,200 (0.71%) showed an effect of 50% or more. The effect is printed as a negative number. Some of the results follow.
Target: human ether-à-go-go-related gene (hERG) potassium channel (human, UniProt Q12809)
Experiment: primary screen, population patch clamp on CHO cells stably expressing hERG

Chain of human ether-à-go-go-related gene (hERG) potassium channel (Q12809 whole entry, looked up): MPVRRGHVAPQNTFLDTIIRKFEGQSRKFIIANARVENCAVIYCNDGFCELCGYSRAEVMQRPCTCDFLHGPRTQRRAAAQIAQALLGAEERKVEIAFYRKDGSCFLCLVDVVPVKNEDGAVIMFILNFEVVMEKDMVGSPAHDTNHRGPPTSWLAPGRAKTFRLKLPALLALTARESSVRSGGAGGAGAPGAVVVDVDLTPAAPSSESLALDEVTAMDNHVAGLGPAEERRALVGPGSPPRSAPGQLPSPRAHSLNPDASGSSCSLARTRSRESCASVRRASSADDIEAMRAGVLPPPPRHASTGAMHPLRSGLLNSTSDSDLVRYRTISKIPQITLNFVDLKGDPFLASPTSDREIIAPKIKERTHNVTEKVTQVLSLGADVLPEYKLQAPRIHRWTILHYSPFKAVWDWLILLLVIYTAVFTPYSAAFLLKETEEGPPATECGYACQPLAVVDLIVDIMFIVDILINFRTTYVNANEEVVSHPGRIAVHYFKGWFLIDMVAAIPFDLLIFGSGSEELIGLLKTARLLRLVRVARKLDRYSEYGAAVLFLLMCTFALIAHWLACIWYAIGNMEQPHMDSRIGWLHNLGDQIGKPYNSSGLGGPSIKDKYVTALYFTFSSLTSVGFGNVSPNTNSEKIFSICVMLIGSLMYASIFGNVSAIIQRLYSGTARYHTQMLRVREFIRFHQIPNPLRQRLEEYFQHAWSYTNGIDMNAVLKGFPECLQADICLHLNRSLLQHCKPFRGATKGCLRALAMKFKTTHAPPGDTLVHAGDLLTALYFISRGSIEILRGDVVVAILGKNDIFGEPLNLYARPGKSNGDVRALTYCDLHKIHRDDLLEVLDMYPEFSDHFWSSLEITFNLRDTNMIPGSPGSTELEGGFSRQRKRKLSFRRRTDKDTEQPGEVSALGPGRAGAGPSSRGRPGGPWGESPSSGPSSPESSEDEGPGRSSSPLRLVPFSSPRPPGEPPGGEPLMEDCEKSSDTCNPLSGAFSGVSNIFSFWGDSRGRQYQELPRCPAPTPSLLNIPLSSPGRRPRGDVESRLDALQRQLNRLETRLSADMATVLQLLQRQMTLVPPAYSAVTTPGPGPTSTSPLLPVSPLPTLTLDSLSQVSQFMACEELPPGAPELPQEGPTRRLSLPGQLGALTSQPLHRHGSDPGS

In order of falling “hERG current change (%, negative = inhibition) at 1uM” value:
1. CCSC1=NCCN1C(=O)c1ccc(S(=O)(=O)N(C)C)cc1  21.5%
2. NS(=O)(=O)c1ccc(CNC(=O)CSc2ccccc2)cc1  19.9%
3. N=C1/C(=C/c2ccc(OC(=O)c3ccco3)cc2)C(=O)N=C2SC=CN12  17.7%
4. Nn1c(SCC(=O)NCc2ccc3c(c2)OCO3)nnc1C1CC1  16.6%
5. CC(=O)NC1C(c2nc3ccccc3s2)=C(c2ccccc2)C(=O)N1c1ccc(C)cc1 (centres unmarked)  16.6%
6. Cc1nn2c3c(cnc2c1-c1ccccc1)C(=O)CC(c1ccccc1)C3 (centres unmarked)  16.1%
7. O=C(c1cc(-c2ccccc2)nc2ccccc12)N1CCOCC1  15.4%
8. COc1ccc(CNC(=O)CN2C(=O)C3C4C=CC(C4)C3C2=O)cc1 (centres unmarked)  15.3%
9. Cc1cc(Br)ccc1SCC(=O)OCC(=O)Nc1ncc(C(F)(F)F)cc1Cl  15.2%
10. CC(CCc1ccccc1)NC(=O)COC(=O)c1ccccc1Br (centres unmarked)  15%
11. CCOc1ccc(CCNC(=O)Nc2cccc(OC)c2)cc1OCC  14.8%
12. COc1ccccc1NC(=O)CSc1n[nH]c(-c2cccnc2)n1  14.5%
13. O=C(CNC(=O)c1ccc(Br)o1)OCc1ccc(Br)cc1  13.9%
14. COc1ccc(CSc2cccc3cccnc23)cc1[N+](=O)[O-]  13.8%
15. Cc1oc(-c2ccc(Cl)cc2)[n+]([O-])c1C.Cl  13.3%
16. COc1ccccc1N1CCN(CC(=O)Nc2c(C)n[nH]c2C)CC1  13.2%
17. COc1cccc(/C=N/n2nnnc2N)c1OCC#N  13.1%
18. CC(C)(C)c1ccc(NC(=O)Nc2ccc(F)cc2)cc1  13%
19. S=C(c1ccc(OCc2ccccc2)cc1)N1CCCC1  12.8%
20. Cc1cccc(C)c1OCc1cc(C(=O)N2CCC(c3ccccc3)CC2)no1  12.4%
21. O=C(CCN1C(=O)c2ccncc2C1=O)Nc1ccc(F)cc1  12.2%
22. C=CCNC(=S)N1CCc2[nH]c3ccccc3c2C1  12%
23. O=C(O)c1ccc(-n2c(-c3cc(C4CC4)[nH]n3)n[nH]c2=S)cc1  11.9%
24. Cc1ccc(NC(=S)Nc2cccnc2)c(S(=O)(=O)N2CCCCC2)c1  11.4%
25. CN(C1CCCCC1)S(=O)(=O)c1ccc(=S)[nH]c1  10.9%
26. CCn1ccnc1CN(C)C(=O)c1cc(COc2ccccc2SC)on1  10.9%
27. C/C(=N\NC(=O)c1cc2ccccc2cc1O)c1ccccn1  10.5%
28. Cn1cc(CN2CCN(c3cnccn3)CC2)c(-c2cccc(Cl)c2)n1  10.2%
29. Cc1ccc(N2CCN(/N=C/c3cccnc3)CC2)cc1  9.56%
30. COc1ccccc1C(=O)NC(CCSC)C(=O)NNC(=O)c1ccccc1C (centres unmarked)  9.3%
31. CC(C)(C)NC(=O)CCCCCCCC(=O)NC(C)(C)C  9.26%
32. Cc1ccc(Cn2c3ccccc3c3cn[nH]c(=O)c32)cc1  7.86%
33. CN(C)c1ccc(/C=N/NC(=O)c2cnc3ccccc3c2)cc1  7.84%
34. O=C(COC(=O)c1ccccc1O)Nc1cc([N+](=O)[O-])ccc1Cl  7.62%
35. COc1ccc(C2(C(=O)NCCc3ccccc3)CCCC2)cc1OC  7.39%
36. COC(=O)[C@@H]1C[C@@]2(O)[C@H](O)[C@H](O)[C@H](O)C[C@H]2N1Cc1ccccc1OS(=O)(=O)c1ccc(C)cc1  7.23%
37. Cc1ccc(Cl)cc1N1CCN(C(=O)C2CCN(c3nnc(-n4cccc4)s3)CC2)CC1  7%
38. COc1ccc(OCC(=O)O/N=C(\N)Cc2ccc(Cl)cc2Cl)cc1  6.98%
39. S=C1NC2(CCCCC2)N=C1c1ccccc1  6.68%
40. CCOc1ccc(N(CC(=O)NCc2ccc(OC)cc2)C(=O)CCC(=O)Nc2nccs2)cc1  5.97%
41. CCCCCCSC1=C(C#N)C(c2ccccc2)CC(=O)N1 (centres unmarked)  5.54%
42. CCC(C)[C@H](N)C(=O)NCC1CCC(C(=O)N[C@@H](Cc2ccccc2)C(=O)O)CC1.Cl (some centres unmarked)  4.48%
43. Cc1n[nH]c(=O)nc1NC(C)c1ccccc1 (centres unmarked)  4.37%
44. COc1ccccc1N1CCN(CCN2C(=O)CC3(CCCC3)CC2=O)CC1.Cl  4.34%
45. COc1ccc(COC(=O)CCS(=O)(=O)c2ccc(C)cc2)cc1F  3.94%
46. Cc1ccc(C(=O)Nc2cccc(N3C(=O)C4CCC(C)CC4C3=O)c2)cc1 (centres unmarked)  2.68%
47. O=C(NCc1cc(C(F)(F)F)cc(C(F)(F)F)c1)C1CC(c2ccccc2[N+](=O)[O-])=NO1 (centres unmarked)  0.283%
48. O=C1c2ccccc2C(=O)N1CCC#Cc1ccc2cc(C3(O)CCCCC3)oc(=O)c2c1  -0.0489%
49. CCc1nn(C(C)C(=O)N2CCc3ccccc3C2)c(=O)c2cc3occc3n12 (centres unmarked)  -1.41%
50. CC(C)(C)c1ccc(C(=O)NCC(=O)OCN2C(=O)c3ccccc3C2=O)cc1  -1.63%
51. CCN1CCN(C(=O)C(C)Sc2nnc3nc(C)cc(C)n23)CC1 (centres unmarked)  -2.49%
52. CCN(CC)C(=O)Cn1cc(C(=O)C(=O)NCc2cccs2)c2ccccc21  -9.68%
53. O=C(C1=C[C@H](C2CCCCC2)C[C@H](OCCCCO)O1)N1CCN(Cc2ccc3c(c2)OCO3)CC1  -10.4%
54. O=C(NC(=S)N1CCN(c2ccc([N+](=O)[O-])cc2)CC1)c1ccccc1Cl  -11%
55. Cc1ccc(NC(=O)CCl)cc1S(=O)(=O)N1CCCCCC1  -22.9%
56. COc1ccc(CCNCC(O)COc2ccc(Cl)cc2)cc1OC.Cl (centres unmarked)  -56%

From article PMC4336329 (PLoS ONE, 2015)
